# PubChem BioAssay AID504845 (National Center for Advancing Translational Sciences (NCATS), 2011)
# Screen size: about 390,000 compounds; about 150 (0.038%) were called active. Inconclusive means that the source gave no clear call. Such entries were picked first, then a sample of the others. The call rests on the fitted dose curve; in most records, active means well fitted inhibition curve with a large enough effect; inconclusive means small, poorly fitted or top-dose-only effect; inactive means no such curve, though single readings can be large or run the other way. Potencies beside an inconclusive call are fits to weak or partial responses and may not hold up.
# Biological target: Regulator of G-protein signaling 4 (Homo sapiens) (UniProt P49798)
# UniProt P49798, sequence (P49798 whole entry, looked up): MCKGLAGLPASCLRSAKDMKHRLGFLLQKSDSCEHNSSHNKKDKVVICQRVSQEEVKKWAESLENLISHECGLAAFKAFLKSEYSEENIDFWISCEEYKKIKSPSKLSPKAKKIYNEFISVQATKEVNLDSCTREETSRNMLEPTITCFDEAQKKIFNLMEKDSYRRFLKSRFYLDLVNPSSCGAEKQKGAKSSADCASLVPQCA
# Assay: Inhibitors of Regulator of G Protein Signaling (RGS) 4: qHTS; further: nearly all actives have a fitted effect of over 75% in size
# Details: Transcreener GDP fluorescence polarization, RGS4-accelerated GTP hydrolysis; series mostly up to 114 µM
# Outline: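 MLSMR compounds (23 nl, pin-transferred) preincubated 10 min at room temperature with a 500nM (2x) first reagent, then RGS4 at 900nM (2x) plus Transcreener GDP mix added; fluorescence polarization (620/688 nm) read before and after 90 min at 30 °C.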
# On the % scale 0 is the no-effect control and ±100 the full control effect; potency means the concentration at half of the fitted maximal effect; tags describe the fitted curve by direction and shape.
Compound,Potency,"activity change, negative = inhibition"
Cc1cccc(-n2cnc(C(=O)NNC(=S)Nc3ccc(Cl)cc3)c2)n1,"inconclusive: 56.2 µM [inhibitor, partial curve, poor fit]",
CC(Oc1ccccc1)C(=O)Nc1oc(-c2ccco2)c(-c2ccco2)c1C#N (stereo not drawn),"inconclusive: 44.7 µM [inhibitor, partial curve, poor fit]",
O=C(NN1CCOCC1)c1cccc2ccccc12,"inconclusive: 39.8 µM [inhibitor, partial curve, poor fit]",
Cc1ccc(-c2csc(NC(=O)c3ccc(C)o3)n2)cc1,inactive,
O=C(O)CCCN=CC1=C(O)CNC1=O,"inconclusive: 79.4 µM [inhibitor, partial curve, poor fit]",
Nc1ccccc1SC(C[N+](=O)[O-])c1ccccc1 (stereo not drawn),"inconclusive: 31.6 µM [inhibitor, full curve, poor fit]",
C/C(=C\c1ccco1)C1C(C#N)=C(N)Oc2n[nH]c(-c3ccccc3)c21 (stereo not drawn),"inconclusive: 100 µM [inhibitor, partial curve, poor fit]",
CC(C)(C)OC(=O)NCCc1nnc(S(=O)(=O)Cc2ccc(Cl)cc2Cl)o1,,inactive: -6.24% [at 11.4 µM]
COc1ccc(N(CC(=O)NCCc2cccc(C)c2)S(=O)(=O)c2c(C)nn(C)c2C)cc1,inactive,
Cc1nc(C)c(C(=O)N/N=C/c2c[nH]c3ccccc23)s1,inactive,
Cc1[nH][nH]c(=O)c1C(c1ccc(N(C)C)c(Br)c1)c1c(C)[nH][nH]c1=O,"inconclusive: 100 µM [inhibitor, single point]",
COC1=CC(=O)C(O)=C(CCCCCCC/C=C/CCCCCCCC2=C(O)C(=O)C=C(OC)C2=O)C1=O,"inconclusive: 39.8 µM [inhibitor, partial curve, poor fit]",
Oc1ccc(N2CCN(CC(O)c3ccccc3)CC2)cc1 (stereo not drawn),"inconclusive: 89.1 µM [inhibitor, single point]",
O=C(O)C1CSC(c2ccc3c(c2)OCO3)N1 (stereo not drawn),"inconclusive: 79.4 µM [inhibitor, partial curve, poor fit]",
Cc1cn2c(=O)c(S(=O)(=O)NCCc3ccccc3)c(C)nc2s1,inactive,
CCOc1ccc(CNc2ccc3c(c2)ncn3C)cc1,"inconclusive: 89.1 µM [inhibitor, single point]",
CC(Oc1cccc(F)c1)c1ccnc2nc(/N=C/N(C)C)nn12 (stereo not drawn),"inconclusive: 79.4 µM [inhibitor, partial curve, poor fit]",
CC1CCCN(Cc2c(O)ccc3c(=O)c(-c4nc5ccccc5s4)c(N)oc23)C1 (stereo not drawn),"inconclusive: 89.1 µM [inhibitor, single point]",
COc1ccc2nc(SCC(=O)c3c(C)[nH]c4ccccc34)nc(C)c2c1,"inconclusive: 39.8 µM [inhibitor, partial curve, poor fit]",
CC(C)c1ccc(NC(=O)c2csnn2)cc1,inactive,
CCn1c(SCC(=O)N/N=C/C=C/c2ccco2)nnc1-c1ccccc1,"inconclusive: 17.8 µM [inhibitor, full curve, poor fit]",
C=CCNC(=O)C1CC(=O)N(c2ccc(OCC(=O)Nc3ccc(Cl)cc3)cc2)C1 (stereo not drawn),"inconclusive: 89.1 µM [inhibitor, single point]",
CCOC(=O)c1c(C)nsc1NCc1ccccc1,"inconclusive: 56.2 µM [inhibitor, partial curve, poor fit]",

Compound,Potency,"activity change, negative = inhibition"
Cc1ccc(CCNC(=O)c2ccc(CSCc3ccccc3Cl)o2)cc1,inactive,
CCOC(=O)N1CCC(NC(=O)c2ccc3c(c2)N(C)CCS3)CC1,"inconclusive: 56.2 µM [inhibitor, partial curve, poor fit]",
Cc1nc(Nc2ccc(Cl)cc2)c2oc3ccccc3c2n1,"inconclusive: 79.4 µM [inhibitor, partial curve, poor fit]",
OC(c1nc2ccccc2[nH]1)C(O)C(O)C(O)c1nc2ccccc2[nH]1 (stereo not drawn),"inconclusive: 79.4 µM [inhibitor, partial curve, poor fit]",
O=C(O)c1ccc(Nc2nc(-c3cc4ccccc4oc3=O)cs2)cc1O,"inconclusive: 50.1 µM [inhibitor, partial curve, poor fit]",
Cc1ccc2scc(N3CCN(c4ccc(F)cc4)CC3)c(=O)c2c1,"inconclusive: 89.1 µM [inhibitor, single point]",
COc1ccccc1C(=O)NC(=S)/C=C1/N(C)c2ccccc2C1(C)C,"inconclusive: 79.4 µM [inhibitor, single point]",
Oc1cc(NCCc2cccnc2)cc2cccnc12,"inconclusive: 50.1 µM [inhibitor, partial curve, poor fit]",
COc1ccc(Cc2nnc(NC(=O)Cc3cccs3)s2)cc1,"inconclusive: 79.4 µM [inhibitor, partial curve, poor fit]",
Cc1ccc(S(=O)(=O)NC(=S)c2ccccc2)cc1,inactive,
Cc1ccc(C(=O)Nn2cnc3ccccc3c2=O)cc1C,inactive,
O=C(C1CC1)N1CCc2cc(Br)cc(S(=O)(=O)NCC3COc4ccccc4O3)c21 (stereo not drawn),"inconclusive: 100 µM [inhibitor, single point]",
CCOc1cc(C)c(S(=O)(=O)Nc2ccc3cn[nH]c3c2)cc1C,inactive,
CCS(=O)(=O)N1CCc2cc(C(=O)NCc3ccccc3)ccc21,inactive,
Cc1ccc(-c2nc3nc(C)cc(Nc4ccccc4O)n3n2)cc1,"inconclusive: 89.1 µM [inhibitor, single point]",
COc1cc(C(=O)Oc2ccc(Br)cc2C(=S)N2CCOCC2)cc(OC)c1OC,"inconclusive: 89.1 µM [inhibitor, partial curve, poor fit]",
Cc1nc(Cl)cc(N/N=C/c2ccc(O)cc2O)n1,inactive,
CNC(CC(=O)c1ccc([N+](=O)[O-])cc1)C(Cl)(Cl)Cl (stereo not drawn),"inconclusive: 28.2 µM [inhibitor, full curve, poor fit]",
CCc1ccc2cccc3c2c1N=CN3C,"inconclusive: 44.7 µM [inhibitor, partial curve, poor fit]",
CCCCN(CCCC)C(=O)c1sc2nc(N3CCOCC3)c3c(c2c1N)CCCC3,"inconclusive: 31.6 µM [inhibitor, partial curve, poor fit]",
C=CC(=O)c1ccc(CCCCCC)cc1,active: 2.67 µM,
O=C(NNc1cc(Cl)cc(Cl)c1)C1CCC1,inactive,
O=C(Nc1ccc(Cl)c([N+](=O)[O-])c1)c1ccc2c(c1)OCCO2,"inconclusive: 50.1 µM [inhibitor, partial curve, poor fit]",

Compound,Potency,"activity change, negative = inhibition"
CNC(=O)COc1ccc(NC(=O)CCn2nc(-c3ccc(C)cc3)c3ccccc3c2=O)cc1,"inconclusive: 70.8 µM [inhibitor, partial curve, poor fit]",
CCOC(=O)c1ccc(N2C(=O)c3n[nH]c(-c4ccco4)c3C2c2ccc(O)c(OC)c2)cc1 (stereo not drawn),inactive,
CCCc1ccc(OCC(=O)NNC(=S)NC(=O)c2ccco2)cc1,"inconclusive: 50.1 µM [inhibitor, partial curve, poor fit]",
COc1cc(OC)c(NS(=O)(=O)c2cc(-c3cnc(C)o3)ccc2OC)cc1Cl,inactive,
COc1ccc(C)cc1NC(=O)C1CCCN(S(=O)(=O)c2ccc3[nH]c(=O)ccc3c2)C1 (stereo not drawn),inactive,
Cc1cnc(NC(=O)CSc2nnc(N)s2)s1,"inconclusive: 17.8 µM [inhibitor, partial curve, poor fit]",
Cc1ccc(CSC2=NS(=O)(=O)c3ccccc32)cc1,"inconclusive: 79.4 µM [inhibitor, partial curve, poor fit]",
N#CC1=C(N)NC(=S)C(C(N)=O)C1c1ccc(Cl)cc1Cl (stereo not drawn),"inconclusive: 25.1 µM [inhibitor, full curve, poor fit]",
CCC1(c2ccc(F)cc2)NC(=O)N(CC(=O)Nc2ccccc2C)C1=O (stereo not drawn),"inconclusive: 100 µM [inhibitor, single point]",
O=C(/C=C/c1ccco1)c1ccc(NC(=O)C23CC4CC(CC(C4)C2)C3)cc1,"inconclusive: 79.4 µM [inhibitor, partial curve, poor fit]",
C=CCn1c(SCC(C)=O)nc2scc(-c3ccco3)c2c1=O,"inconclusive: 44.7 µM [inhibitor, partial curve, poor fit]",
Cc1[nH]c2ccc(C(=O)NCCCN3CCCCCC3)cc2c1C,"inconclusive: 50.1 µM [inhibitor, partial curve, poor fit]",
CNC(C)C#Cc1ccc2sc3cccc(OC)c3c(=O)c2c1 (stereo not drawn),inactive,
CCCCN1CC(c2nc3ccccc3n2CCCCOc2ccc(C)c(C)c2)CC1=O (stereo not drawn),inactive,
CC(C)=C1C(=O)NN(c2cccc(Cl)c2)C1=O,inactive,
O=C(NC(NC(=S)Nc1ccc(Cl)cc1Cl)C(Cl)(Cl)Cl)c1cccc([N+](=O)[O-])c1 (stereo not drawn),inactive,
O=C(O)c1[nH]c2ccc(Cl)cc2c1CC(=O)N1CCN(c2ccccc2)CC1,"inconclusive: 89.1 µM [inhibitor, single point]",
Cn1cc(C(=O)NCc2ccccc2)c(=O)c2cc(S(=O)(=O)N3CCOCC3)ccc21,inactive,
CC1CCc2c(sc(NC(=O)CSc3ncnc4c3cnn4-c3ccccc3Cl)c2C#N)C1 (stereo not drawn),"inconclusive: 89.1 µM [inhibitor, single point]",
COc1ccc(OC)c(NC(=O)CN2CCc3ccccc3C2)c1,inactive,
Oc1ccccc1CC=NC1CCCCC1,"inconclusive: 79.4 µM [inhibitor, single point]",
COc1cc2c(cc1OC)C(SC)=NC(C)(C)C2,"inconclusive: 50.1 µM [inhibitor, partial curve, poor fit]",
